Results as given in PubChem BioAssay AID1963576 (National Center for Advancing Translational Sciences (NCATS), 2024).
About 60 (0.1%) of roughly 46,000 compounds were called active. Roughly 3% stayed inconclusive and do not appear here. The call rests on the fitted dose curve; in most records, active means well fitted inhibition curve with a large enough effect; inconclusive means small, poorly fitted or top-dose-only effect; inactive means no such curve, though single readings can be large or run the other way. Some of the results follow.

Experiment: Primary qHTS assay for Inhibitors of ovarian cancer metastasis using an organotypic tumor microenvironment (TME) model. Further: nearly all actives have a fitted effect of over 65% in size.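 On activity change, negative = inhibition: plate controls were DMSO wells for no effect and tomatine positive control wells for full effect.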
Conditions: SKOV3ip1-GFP adhesion/invasion on 3D omental model, fluorescence; series mostly up to 45.8 µM; activity change, negative = inhibition: at the top concentration
How it was run: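 qHTS, 4-pt dose (0.36-46 umol/L); SKOV3ip1-GFP, 1,200 cells/well, no FBS; primary omental fibroblast/mesothelial co-culture 48 h pre-grown; 2 h RT + 16 h 37 C; PBS wash, 4% PFA; GFP count 488/509 nm.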

Activity change, negative = inhibition, inactive:
CNC(=O)c1ccc(N2C(=S)N(c3ccc(C#N)c(C(F)(F)F)c3)C(=O)C2(C)C)cc1F 11.1%, Cc1ccc2nc(N(Cc3cccnc3)C(=O)CCc3ccccc3)sc2c1 -3.94%, Cc1cccc(-c2cc(C(=O)O)c3c(-c4ccc(F)cc4)[nH]nc3n2)c1 2.09%, CCOC(=O)C1=C(CN2CCCCC2)NC(=O)NC1c1ccc(OC)cc1 (stereo not given) -5.82%, COc1ccc(CCNC(=O)CCn2c(=O)c3cccn3c3ccc(F)cc32)cc1OC -27.2%, CCOc1ccccc1NC(=O)c1cn(C2CCCCC2)c(=O)c2c1c1ccccc1n2C -2.88%, COc1cc(OC)c(NC(=O)Nc2cc(C)on2)cc1Cl 13.7%, NS(=O)(=O)c1ccc(CCNC(=O)CCn2c(=O)c3cccn3c3cccnc32)cc1 -3.61%, COc1cc2nc(N3CCN(C(=O)C4COc5ccccc5O4)CC3)nc(N)c2cc1OC (stereo not given) 9.47%, COc1ccc(Cl)cc1NC(=O)c1cc2nc(-c3ccc(C)cc3)cc(C(F)(F)F)n2n1 0.52%, CCOc1cc2ncc(C#N)c(Nc3ccc(OCc4ccccn4)c(Cl)c3)c2cc1NC(=O)C=CCN(C)C -10.3%, Cc1sc2c(c1C)c(=O)n(-c1ccc(Cl)cc1)c(=O)n2CC(=O)c1ccccc1 2.86%, COc1cccc(C(=O)Nc2ccc3nc(SCC(=O)N4CCc5ccccc54)sc3c2)c1 2.87%, Cc1c(NC(=O)c2ccc(-c3ccc(F)cc3)o2)cccc1-c1nc2ncccc2o1 -6.9%, Fc1ccc(Nc2nc(-c3ccc(F)cc3)c3c(n2)-c2ccccc2OC3)cc1 -12%, O=C(c1cnc(N2CCCCC2)c2ccccc12)N1CCN(c2ccc(F)cc2)CC1 2.85%, O=c1c(O)c(-c2ccc(O)cc2)oc2cc(O)cc(O)c12 26.8%, COc1cc(NC(=O)CCCN2C(=O)CCn3nc(-c4cn(C)c5ccccc45)cc32)cc(OC)c1 -7.98%, CCOC(=O)C(C)Nc1ncnc2onc(C)c12 (stereo not given) -12.4%, CSc1nc(C)cc(Nc2cccc(C(=O)O)c2)n1 -18.3%, CCOc1ccccc1CNC(=O)c1cc2oc3ccccc3c2n1CC 13.4%, O=c1[nH]c2ccc(S(=O)(=O)Nc3cc(Cl)ccc3O)cc2o1 -1.84%, COc1cccc(CNC(=O)c2ccc3c(c2)sc2nc(-c4ccccc4)cn23)c1OC -0.143%, Cc1cc(C)cc(NC(=O)c2cc3c(=O)n(Cc4ccco4)ccc3nc2C)c1 -24.2%, CCOc1cccc(C2c3[nH]c4ccccc4c3CCN2C(=O)Cc2cccc(OCC)c2OCC)c1 (stereo not given) 6.46%, CC1CCc2nc(NC(=O)Cc3ccc(Cl)cc3)sc2C1 (stereo not given) -8.94%, Cc1cc(C)cc(NC(=O)CN(c2cccc(C)c2C)S(=O)(=O)c2ccccc2)c1 2.83%, COc1ccc(C2=NS(=O)(=O)N(C)C(C(=O)NC(C)c3ccccc3)=C2)cc1OC (stereo not given) 3.84%, O=C(CSc1nc(-c2ccccc2)no1)N1CCN(c2ccc(F)cc2)CC1 6.53%, CC1=C(C(=O)OC2CCCC2)C(c2ccc(Cl)cc2)CC(=O)N1 (stereo not given) -18%, CSc1cccc(NC(=O)N2CCN(S(=O)(=O)c3ccc4c(ccn4C)c3)CC2)c1 -5.39%, COc1ccc(-c2nc(SCCOc3cc(C)ccc3C(C)C)n3[nH]c(=O)cc3n2)cc1 4.18%, Cc1cccc(NC(=O)C2CCN(S(=O)(=O)c3c(C)noc3/C=C/c3ccco3)CC2)c1C -5.65%, COc1cccc(N2C(=O)CSC23C(=O)N(Cc2ccccc2F)c2ccccc23)c1 (stereo not given) 48.6%, CC(=O)N(Cc1cccnc1)c1nc2cc(C)cc(C)c2s1 8.86%, O=S(=O)(c1ccc(Cl)cc1)c1nnn2c1nc(NCc1ccccc1)c1sccc12 -3.17%, Cc1ccc(-n2c(=O)[nH]c3sc4c(c3c2=O)CCCC4)cc1 -8.75%, CC(=O)Nc1ccccc1-c1nc2ccccc2n(C(C)C(=O)Nc2cccc(C)c2C)c1=O (stereo not given) -7.52%, CCc1ccc(CN(Cc2ccco2)C(=O)c2ccc(C)cc2)cc1 -6.36%, CCOc1ccc(NC(=O)CCc2c(C)nc3c(c(C)nn3-c3ccccc3)c2C)cc1 -8.36%, CSc1ccc(/C=C/c2nc3ccccc3n2S(=O)(=O)c2ccc(F)c(C)c2)cc1 -0.46%, COc1ccccc1C(=O)N(Cc1ccco1)Cc1ccccc1F -1.41%, COc1ccc(Cl)cc1NC(=O)CN1C(=O)CSc2ccc(S(=O)(=O)N3CCCC3)cc21 -12.2%, Cc1cc(NC(=O)c2ccco2)cc(-c2nc3cc(Cl)ccc3o2)c1O 0.812%, CCc1ccc(C(=O)c2cn(CC(=O)Nc3cccc(C)c3C)c3nc(C)ccc3c2=O)cc1 1.91%, COc1cc(OC)c(NC(=O)CN(C)S(=O)(=O)c2ccc3c(c2)CCCC(=O)N3)cc1Cl 35.7%, CCC(C(=O)N(C)Cc1ccccc1)n1nc(C)c2sc3ccccc3c2c1=O (stereo not given) -5.3%, Cc1cccc(NC(=O)CSc2nc(C)c(Cc3ccccc3)c(=O)[nH]2)c1C -6%, FC(F)(F)c1ccc(Nc2nc3ccc(Oc4ccnc(-c5ncc(C(F)(F)F)[nH]5)c4)cc3[nH]2)cc1 17.7%, Cc1ccc(CNC(=O)c2cc(Sc3ccc(F)cc3F)nc3ccccc23)cc1 -3.82%, COc1ccc(NC(=O)C2CCCN(S(=O)(=O)c3ccc4[nH]c(=O)ccc4c3)C2)cc1OC (stereo not given) -23.8%, CCOC(=O)N1CCN(S(=O)(=O)N2CCCC(C(=O)NCc3ccccc3OC)C2)CC1 (stereo not given) 5.88%, CC(=O)N1CCCC1c1nc2ccccc2n1Cc1cc(C)ccc1C (stereo not given) 0.784%, Cc1ccc2ccc3cc(C(=O)Nc4ccc(C)c(F)c4)nc3c2[nH]1 -5.97%, O=C(Cc1ccc(F)cc1)Nc1cccc(-c2nc3cccnc3s2)c1 -2.66%, O=C(NCC(c1cccnc1)N1CCc2ccccc2C1)C(=O)Nc1cccc(Cl)c1 (stereo not given) 6.87%, Cn1c(=O)n(C)c2cc(N3CCOCC3)c(NS(=O)(=O)c3ccc(Br)cc3)cc21 3.87%, CCc1ccc(NC(=O)CCc2c(C)n(C)c3cc(-c4ccccc4C)nn3c2=O)cc1 -5.68%, Cc1ccc(CCNS(=O)(=O)c2ccc3c(c2)CCN3C(=O)CCC(=O)O)cc1 0.314%, COc1cccc(N=C2SC(C(=O)Nc3cccc(Cl)c3)CC(=O)N2C)c1 (stereo not given) 6.39%, CCOC(=O)c1cnc2c(ccc3ccccc32)c1Nc1ccc(OC)cc1OC -8.88%, COc1ccc(N2CCN(C(=O)CCc3c(C)nc4cc(-c5cccc(F)c5)nn4c3C)CC2)cc1 1.71%, Cc1ccccc1C(=O)N1CCCCC1CCN1CCCCC1 (stereo not given) -2.37%, CC(=O)N1CCc2c(sc3c2c(=O)n(-c2ccccc2)c(=O)n3Cc2cccc(C(F)(F)F)c2)C1 42.4%, COc1ccc(C)cc1NC(=O)c1oc2ccc(S(=O)(=O)N3CCOCC3)cc2c1C 8.81%, CSc1cccc(NC(=O)CC(c2ccc(F)cc2)N2Cc3ccccc3C2=O)c1 (stereo not given) -6.31%, COc1ccc(OC)c(NC(=O)CSC2=Nc3ccccc3C3=NC(CCC(=O)NC4CCCCC4)C(=O)N23)c1 (stereo not given) 15.5%, COc1ccc(C(=O)c2c(N)c(-c3nc(-c4ccccc4)cs3)c3ccccn23)cc1 -3.19%, CSc1ncc(C(=O)N2CCN(c3ccc(Cl)cc3)CC2)c(C)n1 14.2%, COc1ccc(C2=C(C(C)=O)Sc3nnc(-c4ccccc4)n3N2C(C)=O)cc1 -9.97%, CC(=O)NCCNC(=O)c1ccc2c(=O)n(CCc3ccccc3)c(=O)[nH]c2c1 5.85%, Cc1ccc(-n2nc(C)c3c(C)c(CCC(=O)NCc4ccccc4Cl)c(C)nc32)cc1 1.42%, CCOc1ccccc1NC(=O)c1ccc(C(=O)Nc2ccccc2OCC)cc1 3.76%

outcome, inactive:
Cc1cccc(NC(=O)c2ccc(F)c(S(=O)(=O)N3CCN(c4ccc(F)cc4)CC3)c2)c1, Cc1ccc(-c2cn3c(n2)sc2cc(C(=O)NC4CCCCC4)ccc23)cc1, CC(CNC(=O)c1cc2ccccn2n1)c1ccccc1 (stereo not given), Cc1cc(Br)ccc1NC(=O)C(NS(=O)(=O)c1cccs1)c1ccccc1 (stereo not given), Cc1ccc(-n2ncc(C(=O)N(C)Cc3ccccc3)c2-n2cccc2)cc1, Cc1ccc(-c2nc3scc(CCNS(=O)(=O)c4c(C)noc4C)n3n2)cc1, O=C(OCC1CCCO1)c1ccc2c(c1)N(Cc1cccc(F)c1)C(=O)c1ccccc1S2(=O)=O (stereo not given), CCC(=O)N1CCc2cc(Br)cc(S(=O)(=O)N3CCN(c4cccc(Cl)c4)CC3)c21, Cc1nc2c(-c3ccc(F)cc3)c(C)nn2c(C)c1CCC(=O)NCc1cccc(Cl)c1, Cc1cc2c(cc1S(=O)(=O)CCC(=O)N(C)Cc1ccccc1)OCC(=O)N2, COc1ccc2c(CNCCc3ccccc3OC)c(C(=O)O)n(Cc3ccc(F)cc3Cl)c2c1, O=C(Nc1ccccc1)N(Cc1cccs1)c1ccc(Cl)cc1, Cc1ccc(S(=O)(=O)n2nc(C)c(S(=O)(=O)N3CCCCC3)c2C)cc1, CCOc1ccc(NC(=O)CC2C(=O)N(c3cccc(C)c3)C(=O)N2CCC2=CCCCC2)cc1 (stereo not given), CCCCN(CC)C(=O)C1CCC(CNS(=O)(=O)c2cccc3nsnc23)CC1 (stereo not given), COc1ccc(CNC(=O)CCc2c(C)nn(-c3ccc(N4CCOCC4)nn3)c2C)cc1, COc1ccc(CCNC(=O)C2=C(C)C(=O)OC23CCCCC3)c(OC)c1, CCOC(=O)c1ccc(CN(Cc2ccc(F)cc2)S(=O)(=O)c2cc(C(=O)Nc3ccccc3CC)ccc2F)cc1, Cc1cccc(N2CCN(C(=O)CCCn3ncn4c(cc5occc54)c3=O)CC2)c1C, Cc1ccc(/C=C/c2nc3ccccc3n2S(=O)(=O)c2ccc(Br)cc2)cc1, COC(=O)c1c(NC(=O)COc2ccc(Cl)cc2C)sc2c1CCCCC2, CCc1nn(CC(=O)NCCCN2CCN(C)CC2)c(=O)c2cc3occc3n12
